Data: the supplement of paper PMC3334620
Whole data set: some 33,000 sequences, median “E-score (-0.5 to 0.5)” near -0.01, cut for the highest 2% near 0.26. This is one part of the list.

target: Ste12 (UniProt P13574); assay: PBM E-score (8-mer binding enrichment) (E-score (-0.5 to 0.5)); higher = stronger / more preferred TF binding; most listed sequences are background and not binding sites; conditions: protein concentration: 200 nM; construct: GST-DNA-binding domain
Summary of the method: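 Using PURExpress in vitro transcription/translation, GST-tagged yeast transcription factors were made in full-length or DNA-binding-domain form. These were applied at about 100-200 nM to double-stranded universal all-10-mer Agilent arrays, and bound protein was detected with fluorescent anti-GST. Scans were normalised with masliner before the Universal PBM Analysis Suite assigned E-scores to ungapped eight-base words pooled with their reverse complements.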

Sequence | PBM E-score
CTTAAATA | 0.198
GCCAGTTA | -0.0858
GGCGGACA | 0.0615
ACTCCCCG | 0.07
AATTGCCG | -0.136
CGCGTTTA | 0.113
AAGGAGAC | -0.176
CATGGGAA | -0.0149
ATGTACGG | -0.0427
CTTGTGGA | 0.115
AGGTAGCA | -0.255
GGTAATAA | 0.165
AGCAATAT | -0.0848
AGAGTCAA | -0.115
CTAATTAC | -0.0517
CGAAGCCG | -0.157
ACATGCTA | -0.215
CGACGTCG | 0.0287
GACAGAGA | -0.0566
GATTATCA | -0.00605
AGTTGGCG | 0.012
GATGGTAA | 0.0297

Sequence | PBM E-score
GAGTTAGA | -0.0281
AATAAAAA | 0.229
CGAAGTCG | 0.0297
ACCATAGG | 0.00547
CACTTCAA | 0.052
AATGATAC | 0.278
CGAGTACC | -0.113
AGGCGCAC | 0.0196
ATACTGTA | 0.0896
CATTTGCC | -0.194
GACGTCTA | -0.0324
ACAACCGG | 0.0456
TTCTGAAA | 0.365
CGGTCAGC | 0.114
AAATTAGC | 0.123
CACCTCCC | -0.0665
GCCGAGCA | -0.148
GTATATCA | 0.0869
AAAGAGGA | -0.0896
AAACAACT | 0.174
AGAAGGGA | -0.264
GGAGGTTA | -0.16

Sequence | PBM E-score
ACGGCCGC | 0.00686
GGAAGGGA | -0.106
CCGGACGG | -0.196
CTCTAGGC | -0.0144
GGAGACCA | -0.0241
CTGCGTGC | -0.111
CCCTGCTC | -0.175
CTTTACCC | 0.0427
AGGGTGAA | 0.0851
CATATTCA | 0.164
CGGCATGA | 0.0694
CCTGAAAC | 0.487
CACTGATC | -0.0665
CGCCCTTA | -0.0507
CCGGTCAC | -0.0251
AGAAACTC | 0.0266
CTCAACTC | 0.141
ACCGCGTA | 0.0507
AACGATCT | 0.153
ATACAGGA | 0.0595
GCTACTCA | -0.229
AGCGCACT | -0.226

Sequence | PBM E-score
ACCATCGG | -0.117
CCAACGGA | 0.0256
AGCGCGCC | -0.0363
GCGTACTA | -0.316
ATGAGCAA | 0.104
AAGACGAT | -0.0053
ACAAGTGA | -0.128
CGAAGTGA | -0.00239
GACACCCC | -0.0426
AGGACAGC | -0.181
CACTAACC | -0.19
GCATAGAC | -0.152
AGAAACAT | 0.32
ACGTTCGG | -0.101
GCACGAGC | -0.139
GCTCCGCC | 0.0389
ACTGTTAG | -0.105
AGTCTACC | -0.294
AGGGACCA | -0.0899
CAACAGAA | -0.019
ATTAGAAG | 0.105
GATGGTTA | -0.0584

Sequence | PBM E-score
CAGACAAG | -0.101
AAATCGAA | 0.256
CCAGGAGG | -0.154
CAGGCCAG | -0.0417
AGGTTGCA | 0.0266
ATCCGAGG | 0.0546
ATGCGAAG | -0.0618
CCAAAATA | 0.21
TCCCCCGA | -0.0459
CATGTCAC | 0.182
ATACTGAG | 0.188
AATCGATG | 0.065
AAAGGTAC | -0.0157
GGCGCCCA | -0.121
CTGGTGGA | -0.159
AAATCATG | 0.239
CCGTAAAG | 0.0165
CGCCGAGC | -0.0954
CCTTGTGC | -0.0236
TGCCCCAA | 0.0853
CGTAGACA | -0.269
GAGGTTAC | 0.048
